# Assay results from PubChem BioAssay AID1460 (National Center for Advancing Translational Sciences (NCATS), 2008).
# Out of some 270,000 compounds screened, about 5,800 (2.1%) were called active. This list was built around the results that the source calls inconclusive (neither active nor inactive); the mix of calls is not that of the screen. The call rests on the fitted dose curve; in most records, active means well fitted inhibition curve with a large enough effect; inconclusive means small, poorly fitted or top-dose-only effect; inactive means flat fitted curve, though single readings scatter. Where the call is inconclusive, the potency comes from a doubtful curve fit.
# Target: Microtubule-associated protein tau (Homo sapiens) (UniProt P10636)
# Assay: qHTS for Inhibitors of Tau Fibril Formation, Thioflavin T Binding; further: nearly all actives have a fitted effect of over 55% in size
# Details: recombinant tau K18 P301L (four-repeat tau fragment), heparin-induced fibrillization, ThT fluorescence; series mostly up to 57.4 µM; activity, negative = inhibition: at the top concentration
# In short: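 Tau K18 P301L fragment (15 uM unlabeled plus 0.24 uM Alexa 594-labeled) in 100 mM sodium acetate pH 7 with compound, fibrillization induced by 20 uM heparin for 6 hr at 37 C. Thioflavin T (30 uM) added, fluorescence read after 1 hr (ex 450, em 510 nm).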
# On the % scale 0 is the no-effect control and ±100 the full control effect; potency means the concentration at half of the fitted maximal effect; tags describe the fitted curve by direction and shape.
# UniProt P10636, sequence (P10636 whole entry, looked up): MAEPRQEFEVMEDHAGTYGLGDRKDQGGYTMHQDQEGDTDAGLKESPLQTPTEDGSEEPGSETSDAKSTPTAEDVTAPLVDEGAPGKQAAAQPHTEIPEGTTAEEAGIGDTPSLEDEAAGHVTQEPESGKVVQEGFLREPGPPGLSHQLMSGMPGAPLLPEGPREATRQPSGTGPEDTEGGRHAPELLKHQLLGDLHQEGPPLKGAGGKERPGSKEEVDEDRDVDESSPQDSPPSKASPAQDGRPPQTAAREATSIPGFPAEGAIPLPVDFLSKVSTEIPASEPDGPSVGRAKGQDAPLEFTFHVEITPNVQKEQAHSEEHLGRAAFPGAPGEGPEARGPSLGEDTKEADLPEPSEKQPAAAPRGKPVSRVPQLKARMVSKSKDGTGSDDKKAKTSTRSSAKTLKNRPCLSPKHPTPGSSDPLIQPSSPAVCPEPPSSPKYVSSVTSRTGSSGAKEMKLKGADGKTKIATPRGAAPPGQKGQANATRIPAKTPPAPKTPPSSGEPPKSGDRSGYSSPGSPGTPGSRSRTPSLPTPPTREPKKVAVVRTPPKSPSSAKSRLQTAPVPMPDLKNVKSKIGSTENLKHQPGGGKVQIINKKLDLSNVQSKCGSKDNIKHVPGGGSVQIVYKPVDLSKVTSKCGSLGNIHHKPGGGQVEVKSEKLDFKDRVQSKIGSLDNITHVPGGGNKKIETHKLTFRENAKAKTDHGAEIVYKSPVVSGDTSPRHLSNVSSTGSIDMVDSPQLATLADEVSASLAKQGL
Compound,Potency,"activity, negative = inhibition"
O=C(Nc1nnc(-c2ccc3c(c2)CCCC3)o1)c1ccccc1,"inconclusive: 10 µM [inhibitor, partial curve]",
O=S(=O)(c1ccc(F)cc1)N(Cc1nc(-c2ccccc2)no1)C1CCCCC1,"inconclusive: 44.7 µM [inhibitor, single point]",
CCOC(=O)c1ccc(NC(=O)COc2cccc3c(=O)n(C)ccc23)cc1,"inconclusive: 1.12 µM [inhibitor, full curve]",
CCOC(=O)c1ccc(N2CC(O)=C(c3nc4ccccc4c(=O)[nH]3)C2=N)cc1,"inconclusive: 1.41 µM [inhibitor, full curve]",
CCN(Cc1ccccc1)c1ccc(/C=C(\C#N)c2ccccn2)cc1,"inconclusive: 3.55 µM [inhibitor, full curve]",
Cc1oc(-c2ccccc2Cl)nc1CS(=O)CC(=O)NCc1ccccc1Cl (stereo not drawn),"inconclusive: 44.7 µM [inhibitor, single point]",
COc1ccc(NC(=O)CN2CCN(CC(=O)Nc3ccccc3F)CC2)cc1OC,inactive,
COc1ccc(N=C2C(=Nc3ccc(OC)cc3)N(c3ccc(OC)cc3)C(=S)N2c2ccccc2)cc1,"inconclusive: 14.1 µM [inhibitor, partial curve]",
Fc1cccc(Cc2noc(CN3CCN(C4CCc5ccccc5C4)CC3)n2)c1 (stereo not drawn),,inactive: -6.5%
Cc1ccc(C(=O)NCCSCc2ccc(Cl)cc2Cl)cc1[N+](=O)[O-],,inactive: 5.62%
CCc1cc(-c2[nH]ncc2-c2ccc3c(c2)OCO3)c(O)cc1O,"inconclusive: 22.4 µM [inhibitor, partial curve]",
CC1(C)CC(=O)C2=C(C1)Nc1ccccc1S2,"inconclusive: 35.5 µM [inhibitor, partial curve]",
Cc1ccc2nc(-c3ccc(NC(=S)NC4CC(C)(C)NC(C)(C)C4)cc3)sc2c1,"inconclusive: 10 µM [activator, partial curve]",
CCCCCCn1c(N)c(C#N)c2ccc([N+](=O)[O-])cc2c1=O,"inconclusive: 10 µM [inhibitor, partial curve]",
COC(=O)CCCC1=CC2=C(c3ccccc3)C(=O)C(C)(OC(=O)C3CCCC3)C(=O)C2=CN1Cc1ccc2c(c1)OCO2 (stereo not drawn),"inconclusive: 20 µM [inhibitor, partial curve, poor fit]",
CCOc1ccc(NC(=O)Cn2c(=O)n(Cc3ccco3)c(=O)c3ccc(C(=O)NC4CCCC4)cc32)cc1,,inactive: 2.42%
Cc1cc(C(=O)COC(=O)Cc2n[nH]c(=O)c3ccccc23)c(C)n1-c1ccc2c(c1)OCCO2,"inconclusive: 20 µM [inhibitor, partial curve]",
CN(C)c1ccc(/C=N/NC(=O)C2COc3ccccc3O2)o1 (stereo not drawn),"inconclusive: 17.8 µM [inhibitor, partial curve]",
Cc1ccccc1Cn1ccc(NC(=O)c2cnn3c(C(F)(F)F)cc(-c4ccco4)nc23)n1,"inconclusive: 3.55 µM [inhibitor, partial curve]",
CCc1nn2c(N)c(/C=C3\C=Nc4ccccc43)c(=O)nc2s1,"inconclusive: 10 µM [inhibitor, partial curve]",
CCOC(=O)c1ccccc1NC(=O)NCc1cccn1Cc1ccc(F)cc1,"inconclusive: 39.8 µM [activator, single point]",
CCCOc1c(Br)cc(C(=O)NCC)cc1OC,"inconclusive: 3.55 µM [inhibitor, single point]",

Compound,Potency,"activity, negative = inhibition"
COc1ccc(OC)c(NC(=O)CCn2cccn2)c1,,inactive: -2.88%
O=C(NC1CCCCC1)N1CCN(c2ncccn2)CC1,,inactive: -6.35%
O=C(COc1ccc([N+](=O)[O-])cc1)Nc1nnc(-c2cccnc2)s1,"inconclusive: 1.26 µM [inhibitor, partial curve]",
CCCCn1c(N)c(N(CC)C(=O)c2cccc(OC)c2)c(=O)[nH]c1=O,,inactive: -7.6%
Nc1cc2c(cc1O)CCCC2,"inconclusive: 28.2 µM [inhibitor, partial curve]",
Cc1cc(C)nc(SCc2ccc(C(=O)N/N=C/c3ccccn3)cc2)n1,"inconclusive: 39.8 µM [inhibitor, single point]",
S=c1[nH]nc(-c2ccncc2)n1/N=C/C(Cl)=C\c1ccccc1,"inconclusive: 10 µM [inhibitor, partial curve]",
CC(=O)c1ccc(N2CCN(C(=O)c3cc4c(s3)-c3ccccc3OC4)CC2)cc1,"inconclusive: 5.01 µM [inhibitor, partial curve]",
NNC(=O)CSc1cccc2cccnc12,"inconclusive: 28.2 µM [inhibitor, single point]",
COc1ccc(NC(=O)CSc2nc(-c3ccccc3)[nH]c2-c2ccccc2)cc1OC,"inconclusive: 35.5 µM [inhibitor, single point]",
CCOC(=O)C(=O)NCc1ccc(/C=C2/N=C(C)C(C(=O)OCC)=C2O)o1,"inconclusive: 35.5 µM [inhibitor, single point]",
CCN(CC)c1ccc(NC(=O)CN2CCN(S(=O)(=O)c3cc(Cl)ccc3OC)CC2)cc1,inactive,
Cc1nc(-c2coc3cc(C)c(N=O)c(O)c3/c2=N\N)cs1,"inconclusive: 25.1 µM [inhibitor, partial curve]",
COc1ccc(-n2cccc2/C=C/[N+](=O)[O-])cc1,"inconclusive: 15.8 µM [inhibitor, partial curve]",
COc1ccc(NC(=O)Cc2c(F)cccc2Cl)c(OC)c1,,inactive: 6.67%
C#CC(=O)N(c1cc(OC)ccc1OC)C(C(=O)NC1CCCC1)c1cccs1 (stereo not drawn),"inconclusive: 25.1 µM [inhibitor, single point]",
Cc1cc(C)nc(NS(=O)(=O)c2ccc(NC(=O)c3nc(SC(C)C)ncc3Cl)cc2)n1,,inactive: -15.8%
Cc1oc(-c2ccc3c(c2)OCCO3)cc1C(=O)NC(CCC(=O)O)C(=O)O (stereo not drawn),,inactive: -17.9%
CCOC(=O)c1ccc(NC2=CC(=O)C(=O)c3ccccc32)cc1,active: 12.6 µM,
Cc1ccccc1-c1cncnc1N(C)Cc1ccco1,"inconclusive: 31.6 µM [inhibitor, partial curve]",
Cn1c(-c2cccc([N+](=O)[O-])c2)cnc1NCc1ccc(C#N)cc1,"inconclusive: 14.1 µM [inhibitor, partial curve]",
